{
  "source": "PubChem BioAssay AID493208",
  "about": "(National Center for Advancing Translational Sciences (NCATS), 2011)",
  "note": "The campaign covered roughly 44,000 compounds. About 340 (0.77%) were called active. About 5% were inconclusive and are not listed. Calls follow the shape of the dose curve; as a rule, active = well fitted inhibition curve with a large enough effect; inconclusive = small, poorly fitted or top-dose-only effect; inactive = flat fitted curve, though single readings scatter. The list shows a part of the results.",
  "data": [
    {"experiment": "Acumen qHTS Assay for Inhibitors of the mTORC1 Signaling Pathway in MEF (Tsc2-/-, p53-/-) Cells: Sytravon;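 also: plate controls were DMSO for no effect and rapamycin for full effect; nearly all actives have a fitted effect of over 50% in size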", "details": "phospho-rpS6 immunofluorescence/PI, 24 h; series mostly up to 38.3 µM; activity change, negative = inhibition: at the top concentration", "summary_of_the_method": "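Cell-based qHTS: Tsc2-/- p53-/- MEF, 24 h cpd, 37 °C; fix/perm, anti-phospho-S6 Alexa-488 + PI; Acumen 488 nm scan; pS6/PI ratio, % positive cells; rapamycin 7.5 nM = inhibition ref; PI count = viability.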", "values": [
      {"smiles": "Cc1ccc(NC(=O)c2oc3ccc(S(=O)(=O)N4CCCCC4)cc3c2C)c(C)c1", "activity change, negative = inhibition": "inactive: -21.1%"},
      {"smiles": "Cc1cc(C)c(NC(=O)c2c(C)oc3c2C2=NCCN2C=N3)c(C)c1", "activity change, negative = inhibition": "inactive: -13.8%"},
      {"smiles": "Cc1cc(C)c(NC(=O)CN2C(=O)C3(SCC(=O)N3c3ccc(F)cc3)c3ccccc32)c(C)c1", "note": "(stereo not drawn)", "activity change, negative = inhibition": "inactive: -1.67%"},
      {"smiles": "Cc1cccc(N2CCN(C(=O)C(C)n3nc(C)n4c(cc5occc54)c3=O)CC2)c1C", "note": "(stereo not drawn)", "activity change, negative = inhibition": "inactive: -11%"},
      {"smiles": "CCN(CC)S(=O)(=O)c1ccc(-c2csc(=Nc3cccc(C(F)(F)F)c3)n2Cc2ccc3c(c2)OCO3)cc1", "activity change, negative = inhibition": "inactive: -7.59%"},
      {"smiles": "CCc1ccc(CNC(=O)Cn2nc(-c3ccc(Cl)cc3)ccc2=O)cc1", "activity change, negative = inhibition": "inactive: -0.0953%"},
      {"smiles": "COc1ccc(C2c3c(n(C)c4ccccc34)C(=O)N2CC(=O)Nc2ccc(C)cc2Cl)cc1", "note": "(stereo not drawn)", "activity change, negative = inhibition": "inactive: -2.37%"},
      {"smiles": "CN(C)c1ccc(CNC(=O)C2CCN(S(=O)(=O)c3ccc4c(c3)oc(=O)n4C)CC2)cc1", "activity change, negative = inhibition": "inactive: -7.41%"},
      {"smiles": "COc1cccc(NC(=O)Cn2c(=O)n(Cc3ccc(C(=O)NCc4ccc5c(c4)OCO5)cc3)c(=O)c3ccccc32)c1", "activity change, negative = inhibition": "inactive: -12.4%"},
      {"smiles": "Cc1ccc(S(=O)(=O)N2CCCc3cc(NS(=O)(=O)c4ccc(F)cc4)ccc32)cc1", "activity change, negative = inhibition": "inactive: 13.6%"},
      {"smiles": "CCC(Oc1ccc(F)cc1)C(=O)Nc1nc2c(s1)CCCC2", "note": "(stereo not drawn)", "activity change, negative = inhibition": "inactive: -8.77%"},
      {"smiles": "CCc1ccc(-c2cc(C)no2)cc1S(=O)(=O)NCc1ccco1", "activity change, negative = inhibition": "inactive: 7.38%"},
      {"smiles": "COc1ccc(C(=O)N2c3nc(-c4ccco4)nn3C3(CCCCC3)[C@@H]3CCCC[C@@H]32)cc1OC", "activity change, negative = inhibition": "inactive: -2.86%"},
      {"smiles": "O=C(NC1CCCCC1)c1ccc(Cn2c(SCc3ccccc3)nc3cccnc32)cc1", "activity change, negative = inhibition": "inactive: -0.396%"},
      {"smiles": "Cc1cccc(C(=O)N2CCCCC2CCN2CCCCC2)c1", "note": "(stereo not drawn)", "activity change, negative = inhibition": "inactive: -18.6%"},
      {"smiles": "O=C(Nc1ccc(F)cc1)c1oc2ccccc2c1NC(=O)C1CCCCC1", "activity change, negative = inhibition": "inactive: 2.6%"},
      {"smiles": "Cc1ccc2nc(NC(=O)c3ccc(S(=O)(=O)N4CCCc5ccccc54)cc3)sc2c1", "activity change, negative = inhibition": "inactive: -1.26%"},
      {"smiles": "COCCCn1c(=O)c2sccc2n2c(CCCC(=O)Nc3ccc(F)c(F)c3)nnc12", "activity change, negative = inhibition": "inactive: -19.8%"},
      {"smiles": "O=C(C1CCCCC1)N(Cc1cccnc1)c1nc2c(F)cc(F)cc2s1", "activity change, negative = inhibition": "inactive: 0.688%"},
      {"smiles": "COc1ccc(CNC(=O)CCC2N=C3c4ccccc4N=C(SCc4ccc(F)cc4)N3C2=O)cc1", "note": "(stereo not drawn)", "activity change, negative = inhibition": "inactive: 1.36%"},
      {"smiles": "Nc1c(C(=O)Nc2cccc(F)c2)sc2nc(-c3cccs3)ccc12", "activity change, negative = inhibition": "inactive: -12.1%"},
      {"smiles": "Cc1ccccc1-c1nc2scc(CCNC(=O)C(=O)Nc3ccc(F)cc3F)n2n1", "activity change, negative = inhibition": "inactive: -1.63%"},
      {"smiles": "Cc1cc(C)nc(NS(=O)(=O)c2ccc(NC(=O)c3cc(=O)c4ccc(C)c(C)c4o3)cc2)n1", "activity change, negative = inhibition": "inactive: -7.44%"},
      {"smiles": "CN1CCN(C2(CNC(=O)c3ccc([N+](=O)[O-])cc3)CCCCC2)CC1", "activity change, negative = inhibition": "inactive: 0.512%"},
      {"smiles": "Nc1c(C(=O)NCCc2ccccc2)nnn1CC(=O)Nc1ccc(Cl)cc1", "activity change, negative = inhibition": "inactive: -2.34%"},
      {"smiles": "CCCn1c(CCC(=O)Nc2cccc(C)c2C)nc2cccnc21", "activity change, negative = inhibition": "inactive: -16.5%"},
      {"smiles": "O=C(CSc1nc2c([nH]c3ccccc32)c(=O)n1-c1ccccc1)c1ccc(Cl)cc1", "activity change, negative = inhibition": "inactive: -1.07%"},
      {"smiles": "C=Cc1ccc(Cn2c(C(=O)O)c(CNCCc3ccccc3)c3ccc(C)cc32)cc1", "activity change, negative = inhibition": "inactive: -9.56%"},
      {"smiles": "Cc1ccccc1OCCCCn1c(C2CC(=O)N(c3ccccc3Cl)C2)nc2ccccc21", "note": "(stereo not drawn)", "activity change, negative = inhibition": "inactive: 2.09%"},
      {"smiles": "CCOC(=O)C1CCCN(c2c(C(=O)c3ccc(C)cc3)cnc3ccc(OCC)cc23)C1", "note": "(stereo not drawn)", "activity change, negative = inhibition": "inactive: -20.8%"},
      {"smiles": "COc1ccc(CC(=O)Nc2ccc3nc(Nc4cccc(Cl)c4)cc(C)c3c2)cc1", "activity change, negative = inhibition": "inactive: -10.1%"},
      {"smiles": "Cc1ccc(Nc2c(-c3ccc(N4CCOCC4)cc3)nc3c(C)cccn23)cc1", "activity change, negative = inhibition": "inactive: 1.12%"},
      {"smiles": "COCCn1c(SCC(=O)Nc2cccc(C)c2C)nc2c(oc3ccccc32)c1=O", "activity change, negative = inhibition": "inactive: -1.53%"},
      {"smiles": "COc1ccc(CCNC(=O)c2cc3c(-c4ccc(OC)c(OC)c4)nn(C)c3s2)cc1OC", "activity change, negative = inhibition": "inactive: -8.49%"},
      {"smiles": "Cc1ccc(Cn2c(CO)cnc2SCc2cccc(F)c2)cc1", "activity change, negative = inhibition": "inactive: -0.898%"},
      {"smiles": "Cc1ccc(Cl)cc1N1CCN(C(=O)c2ccc(CS(=O)(=O)c3ccc(Br)cc3)o2)CC1", "activity change, negative = inhibition": "inactive: -10.5%"},
      {"smiles": "Cc1oc2ncn(C)c(=O)c2c1C(=O)N(Cc1ccccc1)C(C)C", "activity change, negative = inhibition": "inactive: -5.6%"},
      {"smiles": "CCOC(=O)c1c(C)[nH]c(CCC(=O)NCc2cccc(OC)c2)c1C", "activity change, negative = inhibition": "inactive: 1.04%"},
      {"smiles": "Cc1ccc(Cl)cc1N1CCN(C(=O)CCn2c(=O)c3cccn3c3cccnc32)CC1", "activity change, negative = inhibition": "inactive: -0.348%"},
      {"smiles": "CCc1ccccc1NC(=O)CSc1nc2ncccc2o1", "activity change, negative = inhibition": "inactive: -1.54%"},
      {"smiles": "Cc1oc2ccc(O)c(CN3CCCCC3C)c2c1C(=O)Nc1ccccc1", "note": "(stereo not drawn)", "activity change, negative = inhibition": "inactive: -1.24%"},
      {"smiles": "Cc1cccc(CC(=O)NC2CC(=O)N(c3ccccc3)C2)c1", "note": "(stereo not drawn)", "activity change, negative = inhibition": "inactive: -6.61%"},
      {"smiles": "O=C(CSc1nc(=O)n(CCN2CCOCC2)c2c1CCC2)Nc1cccc(Cl)c1", "activity change, negative = inhibition": "inactive: -3.08%"},
      {"smiles": "COc1ccc(C(CNC(=O)Cc2ccc(Cl)cc2)N2CCOCC2)cc1", "note": "(stereo not drawn)", "activity change, negative = inhibition": "inactive: 1.96%"},
      {"smiles": "O=C(CC(c1cccs1)N1Cc2ccccc2C1=O)Nc1ccc(F)cc1F", "note": "(stereo not drawn)", "activity change, negative = inhibition": "inactive: -3.48%"},
      {"smiles": "COc1cc(NC(=O)CN2C(=O)C(c3ccc(Cl)cc3)=NC23CCCCC3)cc(OC)c1", "activity change, negative = inhibition": "inactive: -1.89%"},
      {"smiles": "Cc1ccc(C2=CC(c3ccc(Cl)cc3)n3nc(-c4ccc(C)cc4)nc3N2)cc1", "note": "(stereo not drawn)", "activity change, negative = inhibition": "inactive: -8.83%"},
      {"smiles": "CC(C)c1ccc(C2c3c(oc4ccc(Cl)cc4c3=O)C(=O)N2CCCN2CCOCC2)cc1", "note": "(stereo not drawn)", "activity change, negative = inhibition": "inactive: -0.921%"}
    ]}
  ]
}
